Experimental data from patent publication US20240287169A1 (AULOS BIOSCIENCE, published 2024).

Target: T1, human IL-2 dimer receptor (CD122/CD132) on HEK-293 reporter cells (human, UniProt P14784 27-551; P31785 23-369)
T1 sequence (looked up) 1: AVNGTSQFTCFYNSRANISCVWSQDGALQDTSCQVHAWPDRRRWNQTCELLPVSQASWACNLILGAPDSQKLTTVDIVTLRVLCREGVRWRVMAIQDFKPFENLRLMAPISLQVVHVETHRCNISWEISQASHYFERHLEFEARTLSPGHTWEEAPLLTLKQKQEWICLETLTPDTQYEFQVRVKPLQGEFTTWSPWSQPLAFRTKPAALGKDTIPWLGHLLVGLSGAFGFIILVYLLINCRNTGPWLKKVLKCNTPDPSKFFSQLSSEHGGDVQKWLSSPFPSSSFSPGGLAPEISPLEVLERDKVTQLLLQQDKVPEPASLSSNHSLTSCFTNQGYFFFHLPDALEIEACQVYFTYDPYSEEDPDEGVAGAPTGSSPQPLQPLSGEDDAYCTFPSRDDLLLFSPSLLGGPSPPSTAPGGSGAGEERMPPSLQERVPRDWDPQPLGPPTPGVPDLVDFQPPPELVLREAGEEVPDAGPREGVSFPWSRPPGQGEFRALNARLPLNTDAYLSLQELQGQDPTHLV
T1 sequence (looked up) 2: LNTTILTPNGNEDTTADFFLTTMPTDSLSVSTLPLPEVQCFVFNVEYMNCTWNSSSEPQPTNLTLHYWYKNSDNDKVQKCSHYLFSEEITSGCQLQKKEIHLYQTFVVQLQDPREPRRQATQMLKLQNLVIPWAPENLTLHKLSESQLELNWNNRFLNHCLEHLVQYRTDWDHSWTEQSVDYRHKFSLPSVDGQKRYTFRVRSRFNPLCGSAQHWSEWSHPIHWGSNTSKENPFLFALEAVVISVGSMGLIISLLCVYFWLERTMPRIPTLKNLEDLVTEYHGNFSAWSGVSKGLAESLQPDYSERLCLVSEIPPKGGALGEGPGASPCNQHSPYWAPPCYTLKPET
Test: cell-based or functional assay

EC50 (SEAP reporter, Abs. 620nM): 0.097 nM
B1: Non-alpha-IL-2 (naIL-2, hIL-2/hCD25 conjugate) (other, human)
chain: ELCDDDPPEIPHATFKAMAYKEGTMLNCECKRGFRRIKSGSLYMLCTGNSSHSSWDNQCQCTSSATRNTTKQVTPQPEEQKERKTTEMQSPMQPVDQASLPGHCREPPPWENEATERIYHFVVGQMVYYQCVQGYRALHRGPAESVCKMTHGKTRWTQPQLICTGEMETSQFPGEEKPQASPEGRPESETSCLVTTTDFQIQTEMAATMETSIFTTEYQGGGGSTRGGGGSTGGGGSGGGGSS[skipping about 150 residues]HHHHHHHH
